# In PubChem BioAssay (NCATS):
# The shares of active, inactive and inconclusive entries below differ from those in the screen. Potencies beside an inconclusive call are fits to weak or partial responses and may not hold up. Calls of active or inactive are those of the source. Calls come from the whole dose curve; as a rule, active = well fitted inhibition curve with a large enough effect; inconclusive = small, poorly fitted or top-dose-only effect; inactive = flat fitted curve, though single readings scatter.
# Assay: P-glycoprotein substrates identified in KB-8-5-11 adenocarcinoma cell line, qHTS therapeutic library screen (AID 1346987); note: nearly all actives have a fitted effect of over 65% in size
# Details: KB-8-5-11 (P-gp overexpressing) viability, CellTiter-Glo, 72 h; series mostly up to 44.5 µM
# Method in brief: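 In this qHTS, P-gp-rich KB-8-5-11 cells received library compounds across a concentration range. Viability was quantified by luminescence after 72 h at 37 degree C.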
# Potency is the fitted concentration of half-maximal effect; tags give direction and shape of the fitted curve.
row,Structure (SMILES),Potency
1,CCNC(=O)c1noc(-c2cc(Cl)c(O)cc2O)c1-c1ccc(OC)cc1,"inconclusive: 0.13 µM [inhibitor, full curve]"
2,O=C(Nc1ccc(Cl)cc1F)c1ccccc1O,active: 7.31 µM
3,C[C@@H](N[C@H]1CCCC[C@@H]1NC(=O)c1ccc(Cl)cc1)c1cccc2ccccc12,active: 23.1 µM
4,CN1CCN(Cc2ccc(NC(=O)Cc3ccc(Oc4cc(NC(=O)C5CC5)ncn4)cc3)cc2C(F)(F)F)CC1,"inconclusive: 5.8 µM [inhibitor, full curve, poor fit]"
5,CCN(CC)CCN(Cc1ccc(-c2ccc(C(F)(F)F)cc2)cc1)C(=O)Cn1c(SCc2ccc(F)cc2)nc(=O)c2c1CCC2,active: 18.4 µM
6,N#Cc1cc(-c2ccnc(Nc3ccc(N4CCOCC4)cc3)n2)ccc1OC1CCOCC1,active: 16.4 µM
7,COc1cc([C@H]2O[C@H](c3cc(OC)c4c(c3)OCO4)[C@H](C)[C@H]2C)cc(OC)c1OC,"inconclusive: 4.47 µM [inhibitor, partial curve]"
8,C#Cc1cccc(Nc2nc3cc(C(=O)O)ccc3c3cncnc23)c1,"inconclusive: 16.4 µM [inhibitor, partial curve]"
9,CC(C)CCNC(=O)c1ccc2c(c1)nc(Nc1n[nH]c3ccc(-c4ccccc4OC(F)(F)F)cc13)n2C1CCC(O)CC1 (stereo unspecified),"inconclusive: 29.1 µM [inhibitor, single point]"
10,COCCOCCOc1ccc(C2=N[C@@](C)(C(=O)O)CS2)c(O)c1,"inconclusive: 20.6 µM [inhibitor, single point]"
11,C=C(C(=O)O)C1CC2=C(C)C(=O)CC2C(C)CC1O (stereo unspecified),"inconclusive: 20.6 µM [inhibitor, single point]"
12,COc1cc(C[C@H]2C(=O)OC[C@@H]2Cc2ccc(OC)c(OC)c2)ccc1O,"inconclusive: 5.7 µM [inhibitor, partial curve]"
13,C=C1C(=O)OC2C(OC(=O)C=C(C)C)C(C)=C3C(=O)C=C(C)C3C(O)C12 (stereo unspecified),"inconclusive: 20.2 µM [inhibitor, single point]"
14,CCN1CCN(Cc2ccc(NC(=O)c3ccc(C)c(Oc4ccnc5[nH]ccc45)c3)cc2C(F)(F)F)CC1,active: 10.1 µM
15,C=CC(=O)N1CCC(Oc2cc3c(Nc4ccc(Cl)c(Cl)c4F)ncnc3cc2OC)CC1,active: 11.6 µM
16,CC(=O)OC[C@H]1O[C@@H](n2ncc(=O)[nH]c2=O)[C@H](OC(C)=O)[C@@H]1OC(C)=O,"inconclusive: 18.4 µM [inhibitor, single point]"
17,CCCCCCCCC(=O)N[C@H](CN1CCCC1)[C@H](O)c1ccc2c(c1)OCCO2,active: 16.4 µM
18,CCOC(=O)c1cccc(CNc2ccc(N(C)C(=O)Nc3ccccc3)cc2)c1,"inconclusive: 4.61 µM [inhibitor, full curve]"
19,Cc1noc(C)c1-c1cc(O)cc(C(O)c2ccccc2)c1 (stereo unspecified),"inconclusive: 11.6 µM [inhibitor, partial curve]"
20,C=CC(=O)N1CCN(C(=O)CNc2cc(-c3ccccc3Cl)c(Cl)cc2OC)CC1,"inconclusive: 20.6 µM [inhibitor, single point]"
21,O=C(NCc1ccc(Oc2ccccc2)cc1)c1nc(-c2cc(Br)c(O)c(Br)c2)no1,"inconclusive: 23.1 µM [inhibitor, single point]"
22,CC(=O)N1CCN(CCOc2ccc(C3CCN(C4=Nn5c(nnc5C(F)(F)F)CC4)CC3)cc2)CC1,"inconclusive: 14.6 µM [inhibitor, single point]"
23,C=CC(=O)N1CCN(C(=O)CNc2cc(I)c(Cl)cc2O)CC1,"inconclusive: 2.91 µM [inhibitor, partial curve]"
24,COc1ccc2nc(-c3cc(OC)c(OC)c(OC)c3)cc(C(=O)NCC(=O)Nc3ccc(C(C)=O)cc3)c2c1,"inconclusive: 23.1 µM [inhibitor, single point]"
25,COc1cc(-c2cc(-c3cccc(O)c3)cnc2N)cc(OC)c1OC,"inconclusive: 18.4 µM [inhibitor, single point]"
26,Cc1cc(N(C)C)ccc1-c1nc2ccc(-c3nc4ccc(N5CCN(C)CC5)cc4[nH]3)cc2[nH]1,"inconclusive: 29.1 µM [inhibitor, single point]"
